Experimental data from the supplement of paper PMC4967469.

Compound: N#CC[C@H](C1CCCC1)n1cc(-c2ncnc3[nH]ccc23)cn1 [Ruxolitinib]
Test: Viability of human cancer cell lines after 72 h of drug (GDSC screen)
Procedure: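 Human cancer cell lines in 384-well plates, medium with 10% serum, drug for 72 h over a 256-fold dose range (nine 2-fold or five 4-fold steps up to the top dose). Adherent lines were fixed and stained with the nucleic acid dye Syto60, suspension lines read with resazurin; signal relative to control wells, capped at 0 and 100%. One two-parameter sigmoid per drug and line, fitted in a mixed model over all curves with the slope shared within a line.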

Cell Line | AUC | IC50
Hey (ovary, adherent, top dose 5.24 µM) | 0.988 | > 5.24 µM
Hs633T (fibrosarcoma, adherent, top dose 5.24 µM) | 0.991 | > 5.24 µM
Hs683 (glioma, adherent, top dose 5.24 µM) | 0.988 | > 5.24 µM
Hs746T (stomach, adherent, top dose 5.24 µM) | 0.904 | > 5.24 µM
Hs766T (pancreas, adherent, top dose 5.24 µM) | 0.979 | > 5.24 µM
Hs939-T (melanoma, adherent, top dose 5.24 µM) | 0.986 | > 5.24 µM
Hs940-T (melanoma, adherent, top dose 5.24 µM) | 0.912 | > 5.24 µM
Hs-445 (Hodgkin lymphoma, suspension, top dose 5.24 µM) | 0.988 | > 5.24 µM
Hs-578-T (breast, adherent, top dose 5.24 µM) | 0.987 | > 5.24 µM
HuCCT1 (biliary tract, adherent, top dose 5.24 µM) | 0.975 | > 5.24 µM
HuH-7 (liver, adherent, top dose 5.24 µM) | 0.985 | > 5.24 µM
HuO9 (osteosarcoma, adherent, top dose 5.24 µM) | 0.967 | > 5.24 µM
HuO-3N1 (osteosarcoma, adherent, top dose 5.24 µM) | 0.981 | > 5.24 µM
HuP-T3 (pancreas, adherent, top dose 5.24 µM) | 0.979 | > 5.24 µM
HuP-T4 (pancreas, adherent, top dose 5.24 µM) | 0.96 | > 5.24 µM
IA-LM (large cell lung carcinoma, adherent, top dose 5.24 µM) | 0.981 | > 5.24 µM
IGR-1 (melanoma, adherent, top dose 5.24 µM) | 0.963 | > 5.24 µM
IGR-37 (melanoma, adherent, top dose 5.24 µM) | 0.989 | > 5.24 µM
IHH-4 (thyroid, semi-adherent, top dose 5.24 µM) | 0.993 | > 5.24 µM
IM-95 (stomach, adherent, top dose 5.24 µM) | 0.984 | > 5.24 µM
IMR-5 (neuroblastoma, adherent, top dose 5.24 µM) | 0.987 | > 5.24 µM

Cell Line | AUC | IC50
IST-MES1 (mesothelioma, adherent, top dose 5.24 µM) | 0.987 | > 5.24 µM
IST-SL1 (small cell lung carcinoma, semi-adherent, top dose 5.24 µM) | 0.979 | > 5.24 µM
IST-SL2 (small cell lung carcinoma, suspension, top dose 5.24 µM) | 0.974 | > 5.24 µM
J82 (bladder, adherent, top dose 5.24 µM) | 0.975 | > 5.24 µM
JEG-3 (urogenital system, adherent, top dose 5.24 µM) | 0.99 | > 5.24 µM
JHH-1 (liver, adherent, top dose 5.24 µM) | 0.978 | > 5.24 µM
JHH-2 (liver, adherent, top dose 5.24 µM) | 0.986 | > 5.24 µM
JHH-4 (liver, adherent, top dose 5.24 µM) | 0.972 | > 5.24 µM
JHH-6 (liver, adherent, top dose 5.24 µM) | 0.987 | > 5.24 µM
JHH-7 (liver, adherent, top dose 5.24 µM) | 0.988 | > 5.24 µM
JHOS-2 (ovary, adherent, top dose 5.24 µM) | 0.971 | > 5.24 µM
JHOS-3 (ovary, adherent, top dose 5.24 µM) | 0.983 | > 5.24 µM
JHU-011 (head and neck, adherent, top dose 5.24 µM) | 0.981 | > 5.24 µM
JHU-022 (head and neck, adherent, top dose 5.24 µM) | 0.98 | > 5.24 µM
JIMT-1 (breast, adherent, top dose 5.24 µM) | 0.985 | > 5.24 µM
JJN-3 (haematopoietic neoplasm, suspension, top dose 5.24 µM) | 0.99 | > 5.24 µM
JM1 (B-cell lymphoma, suspension, top dose 5.24 µM) | 0.981 | > 5.24 µM
JSC-1 (B-cell lymphoma, suspension, top dose 5.24 µM) | 0.78 | 2.13 µM
JURL-MK1 (chronic myeloid leukaemia, suspension, top dose 5.24 µM) | 0.976 | > 5.24 µM
JVM-2 (lymphoid neoplasm, suspension, top dose 5.24 µM) | 0.98 | > 5.24 µM
JVM-3 (lymphoid neoplasm, suspension, top dose 5.24 µM) | 0.987 | > 5.24 µM

Cell Line | AUC | IC50
JiyoyeP-2003 (Burkitt lymphoma, suspension, top dose 5.24 µM) | 0.991 | > 5.24 µM
K2 (melanoma, adherent, top dose 5.24 µM) | 0.98 | > 5.24 µM
K5 (thyroid, adherent, top dose 5.24 µM) | 0.987 | > 5.24 µM
KALS-1 (glioma, adherent, top dose 5.24 µM) | 0.962 | > 5.24 µM
KARPAS-45 (lymphoblastic leukaemia, suspension, top dose 5.24 µM) | 0.862 | 3.33 µM
KARPAS-299 (anaplastic large cell lymphoma, suspension, top dose 5.24 µM) | 0.958 | > 5.24 µM
KARPAS-422 (B-cell lymphoma, suspension, top dose 5.24 µM) | 0.98 | > 5.24 µM
KARPAS-620 (haematopoietic neoplasm, suspension, top dose 5.24 µM) | 0.977 | > 5.24 µM
KCL-22 (chronic myeloid leukaemia, suspension, top dose 5.24 µM) | 0.989 | > 5.24 µM
KE-37 (lymphoblastic leukaemia, suspension, top dose 5.24 µM) | 0.99 | > 5.24 µM
KELLY (neuroblastoma, adherent, top dose 5.24 µM) | 0.985 | > 5.24 µM
KGN (ovary, adherent, top dose 5.24 µM) | 0.98 | > 5.24 µM
KINGS-1 (glioma, adherent, top dose 5.24 µM) | 0.979 | > 5.24 µM
KLE (endometrium, adherent, top dose 5.24 µM) | 0.969 | > 5.24 µM
KM12 (large intestine, adherent, top dose 5.24 µM) | 0.915 | > 5.24 µM
KM-H2 (Hodgkin lymphoma, suspension, top dose 5.24 µM) | 0.993 | > 5.24 µM
KMH-2 (thyroid, adherent, top dose 5.24 µM) | 0.99 | > 5.24 µM
KMOE-2 (acute myeloid leukaemia, suspension, top dose 5.24 µM) | 0.99 | > 5.24 µM
KMRC-1 (kidney, adherent, top dose 5.24 µM) | 0.987 | > 5.24 µM
KMRC-20 (kidney, adherent, top dose 5.24 µM) | 0.989 | > 5.24 µM
KMS-11 (myeloma, suspension, top dose 5.24 µM) | 0.991 | > 5.24 µM

Cell Line | AUC | IC50
KNS-42 (glioma, adherent, top dose 5.24 µM) | 0.98 | > 5.24 µM
KNS-81-FD (glioma, adherent, top dose 5.24 µM) | 0.959 | > 5.24 µM
KON (head and neck, adherent, top dose 5.24 µM) | 0.987 | > 5.24 µM
KOPN-8 (B-cell leukaemia, suspension, top dose 5.24 µM) | 0.99 | > 5.24 µM
KP-1N (pancreas, adherent, top dose 1.024 µM) | 0.961 | > 1.02 µM
KP-2 (pancreas, adherent, top dose 5.24 µM) | 0.986 | > 5.24 µM
KP-3 (pancreas, adherent, top dose 5.24 µM) | 0.981 | > 5.24 µM
KP-N-YN (neuroblastoma, adherent, top dose 5.24 µM) | 0.987 | > 5.24 µM
KP-N-YS (neuroblastoma, adherent, top dose 5.24 µM) | 0.953 | > 5.24 µM
KS-1 (glioma, adherent, top dose 5.24 µM) | 0.972 | > 5.24 µM
KU812 (chronic myeloid leukaemia, suspension, top dose 5.24 µM) | 0.988 | > 5.24 µM
KU-19-19 (bladder, adherent, top dose 5.24 µM) | 0.986 | > 5.24 µM
KURAMOCHI (ovary, adherent, top dose 5.24 µM) | 0.984 | > 5.24 µM
KY821 (leukaemia, suspension, top dose 5.24 µM) | 0.991 | > 5.24 µM
KYAE-1 (oesophagus, suspension, top dose 5.24 µM) | 0.954 | > 5.24 µM
KYM-1 (rhabdomyosarcoma, adherent, top dose 5.24 µM) | 0.988 | > 5.24 µM
KYSE-50 (oesophagus, adherent, top dose 5.24 µM) | 0.99 | > 5.24 µM
KYSE-70 (oesophagus, adherent, top dose 5.24 µM) | 0.984 | > 5.24 µM

IC50 is the fitted dose that halves viability relative to control wells, and lower means more sensitive; a fit beyond the top or the lowest dose is shown as a bound at that dose. The AUC spans the tested range (256-fold, ending at the top dose) of the same fit; values near 1 show little effect.
